Data on 32 sequences can be found in paper PMC12820563, “FoxP3 forms a head-to-head dimer in vivo and stabilizes its multimerization on adjacent microsatellites”.

The list shows a part of the results.

In the assay the target is T1, MBP-FoxP1dN (Mus musculus, UniProt P58462 326-579).
T1 sequence: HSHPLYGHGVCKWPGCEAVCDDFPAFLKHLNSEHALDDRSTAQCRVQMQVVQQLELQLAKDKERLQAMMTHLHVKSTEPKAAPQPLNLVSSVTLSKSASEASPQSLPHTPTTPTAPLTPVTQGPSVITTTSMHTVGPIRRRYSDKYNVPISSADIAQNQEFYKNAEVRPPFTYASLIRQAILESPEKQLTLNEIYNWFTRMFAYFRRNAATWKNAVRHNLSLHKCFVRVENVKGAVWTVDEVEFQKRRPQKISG
As to the kind of experiment: PD-seq (MBP pull-down with sequencing); 20 mM Tris-HCl pH 7.5, 100 mM NaCl, 1.5 mM MgCl2, 0.4 uM protein, 0.1 uM dsDNA library, 30 min, room temperature, amylose pull-down; high values mean tight binding. The note with it: protein: recombinant; tags: His6-MBP; chain copies: 2; dsDNA, one strand shown. A digest of the protocol:
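Binding is given as reads-per-million enrichment, pull-down over input, with replicates pooled. The bait was an N-terminus-lacking mouse FoxP3 or FoxP1 fragment with a His6-MBP tag, expressed in E. coli and used at 0.4 µM with 0.1 µM Klenow-filled degenerate double-stranded DNA library for 30 min at room temperature in Tris pH 7.5 buffer with NaCl and MgCl2. Amylose resin pull-down with three washes was followed by proteinase K release, PCR barcoding and Illumina sequencing.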
“GATGATTGTTCTCCCAGCTGATGAATTACACTCTTCGAGTAAACAAATTTTCCTAATCTTTCTGTTCAAGCGCCATCTAC”: the binding signal was 1.25 RPM ratio (pull-down/input). “GATGATTGTTCTCCCAGCTGATGAATTATGCCTATCGAGTAAACAAATTTTCCTAATCTTTCTGTTCAAGCGCCATCTAC”: the binding signal is 1.04 RPM ratio (pull-down/input).

Take “GATGATTGTTCTCCCAGCTGATGAATTGGTGCACTCGAGTAAACAAATTTTCCTAATCTTTCTGTTCAAGCGCCATCTAC”: the binding signal is 0.992 RPM ratio (pull-down/input). In the case of “GATGATTGTTCTCCCAGCTGATGAATTAGGCTTGTCGAGTAAACAAATTTTCCTAATCTTTCTGTTCAAGCGCCATCTAC”, the binding signal is 0.93 RPM ratio (pull-down/input). With “GATGATTGTTCTCCCAGCTGATGAATTACAGCTATCGAGTAAACAAATTTTCCTAATCTTTCTGTTCAAGCGCCATCTAC”, the binding signal was 1.11 RPM ratio (pull-down/input). As to “GATGATTGTTCTCCCAGCTGATGAATTGCACGTTTCGAGTAAACAAATTTTCCTAATCTTTCTGTTCAAGCGCCATCTAC”, the binding signal is 1.23 RPM ratio (pull-down/input). Under “GATGATTGTTCTCCCAGCTGATGAATTATCTTAGTCGAGTAAACAAATTTTCCTAATCTTTCTGTTCAAGCGCCATCTAC” stands 0.964 RPM ratio (pull-down/input); under “GATGATTGTTCTCCCAGCTGATGAATTCAGTGAGTCGAGTAAACAAATTTTCCTAATCTTTCTGTTCAAGCGCCATCTAC”, 0.862 RPM ratio (pull-down/input); under “GATGATTGTTCTCCCAGCTGATGAATTTAGCACATCGAGTAAACAAATTTTCCTAATCTTTCTGTTCAAGCGCCATCTAC”, 1.06 RPM ratio (pull-down/input).

Regarding “GATGATTGTTCTCCCAGCTGATGAATTAGCCCTGTCGAGTAAACAAATTTTCCTAATCTTTCTGTTCAAGCGCCATCTAC”, the binding signal is 0.818 RPM ratio (pull-down/input). As for “GATGATTGTTCTCCCAGCTGATGAATTGATGCGGTCGAGTAAACAAATTTTCCTAATCTTTCTGTTCAAGCGCCATCTAC”, the figure is 1.39 RPM ratio (pull-down/input).

On to “GATGATTGTTCTCCCAGCTGATGAATTTAAGAGTTCGAGTAAACAAATTTTCCTAATCTTTCTGTTCAAGCGCCATCTAC”, for which the binding signal is 0.82 RPM ratio (pull-down/input).

“GATGATTGTTCTCCCAGCTGATGAATTCCGGCAATCGAGTAAACAAATTTTCCTAATCTTTCTGTTCAAGCGCCATCTAC”: the binding signal was 0.982 RPM ratio (pull-down/input). For the sequence “GATGATTGTTCTCCCAGCTGATGAATTCTATGCATCGAGTAAACAAATTTTCCTAATCTTTCTGTTCAAGCGCCATCTAC”, the binding signal is 1.24 RPM ratio (pull-down/input). Under “GATGATTGTTCTCCCAGCTGATGAATTGGTGGCTTCGAGTAAACAAATTTTCCTAATCTTTCTGTTCAAGCGCCATCTAC” stands 0.906 RPM ratio (pull-down/input). “GATGATTGTTCTCCCAGCTGATGAATTAAGAATTTCGAGTAAACAAATTTTCCTAATCTTTCTGTTCAAGCGCCATCTAC”: the binding signal is 0.887 RPM ratio (pull-down/input).

In the case of “GATGATTGTTCTCCCAGCTGATGAATTGAAGGAATCGAGTAAACAAATTTTCCTAATCTTTCTGTTCAAGCGCCATCTAC”, the binding signal is 0.885 RPM ratio (pull-down/input).

Consider “GATGATTGTTCTCCCAGCTGATGAATTTGTCAAGTCGAGTAAACAAATTTTCCTAATCTTTCTGTTCAAGCGCCATCTAC”, for which the binding signal was 0.975 RPM ratio (pull-down/input). As for “GATGATTGTTCTCCCAGCTGATGAATTGAGATGGTCGAGTAAACAAATTTTCCTAATCTTTCTGTTCAAGCGCCATCTAC”, the figure is 0.817 RPM ratio (pull-down/input); as for “GATGATTGTTCTCCCAGCTGATGAATTCCCAAAATCGAGTAAACAAATTTTCCTAATCTTTCTGTTCAAGCGCCATCTAC”, 1.07 RPM ratio (pull-down/input). As for “GATGATTGTTCTCCCAGCTGATGAATTACCGTTGTCGAGTAAACAAATTTTCCTAATCTTTCTGTTCAAGCGCCATCTAC”, the figure is 1.12 RPM ratio (pull-down/input); as for “GATGATTGTTCTCCCAGCTGATGAATTTTATCTTTCGAGTAAACAAATTTTCCTAATCTTTCTGTTCAAGCGCCATCTAC”, 0.896 RPM ratio (pull-down/input); as for “GATGATTGTTCTCCCAGCTGATGAATTTGGACTGTCGAGTAAACAAATTTTCCTAATCTTTCTGTTCAAGCGCCATCTAC”, 0.834 RPM ratio (pull-down/input). As for “GATGATTGTTCTCCCAGCTGATGAATTTACGGCGTCGAGTAAACAAATTTTCCTAATCTTTCTGTTCAAGCGCCATCTAC”, the figure is 1.02 RPM ratio (pull-down/input); as for “GATGATTGTTCTCCCAGCTGATGAATTGTCCGCATCGAGTAAACAAATTTTCCTAATCTTTCTGTTCAAGCGCCATCTAC”, 1.15 RPM ratio (pull-down/input); as for “GATGATTGTTCTCCCAGCTGATGAATTGAGGCCGTCGAGTAAACAAATTTTCCTAATCTTTCTGTTCAAGCGCCATCTAC”, 0.854 RPM ratio (pull-down/input). Turning to “GATGATTGTTCTCCCAGCTGATGAATTCTCTTGGTCGAGTAAACAAATTTTCCTAATCTTTCTGTTCAAGCGCCATCTAC”, the binding signal is 0.807 RPM ratio (pull-down/input).

Turning to “GATGATTGTTCTCCCAGCTGATGAATTTTTGATTTCGAGTAAACAAATTTTCCTAATCTTTCTGTTCAAGCGCCATCTAC”, the binding signal is 1.33 RPM ratio (pull-down/input).

As to “GATGATTGTTCTCCCAGCTGATGAATTGCTTGCGTCGAGTAAACAAATTTTCCTAATCTTTCTGTTCAAGCGCCATCTAC”, the binding signal is 1.16 RPM ratio (pull-down/input). Regarding “GATGATTGTTCTCCCAGCTGATGAATTTAGACCATCGAGTAAACAAATTTTCCTAATCTTTCTGTTCAAGCGCCATCTAC”, the binding signal was 0.985 RPM ratio (pull-down/input). As for “GATGATTGTTCTCCCAGCTGATGAATTTACCGTCTCGAGTAAACAAATTTTCCTAATCTTTCTGTTCAAGCGCCATCTAC”, the figure is 1.07 RPM ratio (pull-down/input); as for “GATGATTGTTCTCCCAGCTGATGAATTTGTCAATTCGAGTAAACAAATTTTCCTAATCTTTCTGTTCAAGCGCCATCTAC”, 1.35 RPM ratio (pull-down/input).
